Laboratory results as given in the supplement of paper PMC3334620.
Over roughly 33,000 sequences, “E-score (-0.5 to 0.5)” has its median near -0.017; the highest 2% begin near 0.3. The list shows a part of the results.

Target: T1, Sut1 (UniProt P53032)
T1 sequence: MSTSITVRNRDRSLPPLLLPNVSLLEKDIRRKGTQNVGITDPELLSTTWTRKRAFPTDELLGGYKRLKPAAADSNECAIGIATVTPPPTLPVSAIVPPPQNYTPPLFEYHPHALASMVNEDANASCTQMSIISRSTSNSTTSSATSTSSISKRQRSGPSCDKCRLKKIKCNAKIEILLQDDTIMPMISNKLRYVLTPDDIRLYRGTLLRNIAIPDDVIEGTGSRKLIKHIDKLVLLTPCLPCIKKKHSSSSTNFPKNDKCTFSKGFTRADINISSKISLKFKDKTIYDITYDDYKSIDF
Test: PBM E-score (8-mer binding enrichment) (E-score (-0.5 to 0.5)); higher = stronger / more preferred TF binding; most listed sequences are background and not binding sites
Conditions: protein concentration: 200 nM; construct: GST-full length
Protocol: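 Universal 'all 10-mer' protein binding microarrays (Agilent AMADID 015681) probed with GST-tagged S. cerevisiae TFs (full-length or DBD) made by in vitro transcription/translation (PURExpress), about 100-200 nM. Bound TF was detected with fluorescent anti-GST. Each ungapped 8-mer (which stands for itself and its reverse complement) is scored by the PBM enrichment score (E-score), a modified Wilcoxon-Mann-Whitney statistic from -0.5 to +0.5, computed with the Universal PBM Analysis Suite. Scale: above 0.35 generally sequence-specific binding.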

Sequence	PBM E-score
GGTCTGGA	-0.16
GAAATCCC	-0.0066
ACGAGCTA	0.0481
CTTGATAC	0.0142
GGACACCA	-0.181
GAGCACTC	0.0601
CAGGCGCC	-0.0838
AAGCGCAC	0.00639
GCCATAAC	-0.208
CAACATCG	0.0971
ACGGGTAT	0.0157
GGCAACTA	0.0135
GCTTTACA	0.118
ACATAGGG	-0.225
GATAAACA	0.203
CGGATCAG	0.0262
GGCGTCCA	-0.162
CAACGTTG	0.0732
AATTCGGA	0.396
CTCGTTAA	0.1
ACGTTTAA	0.163
ATCTTTGC	0.121
GCAAACAA	0.0767
AGTCAAAC	-0.135
CGAGGCTA	-0.0685

Sequence	PBM E-score
CAAGTAAC	0.0878
AACGAGTT	0.09
CAACTAAA	0.25
GCACTCTA	0.0854
ATGTATGA	0.181
GCCATCAC	-0.12
CCCATTGA	-0.0299
AACTAGTA	0.0715
AGAATACT	0.112
AAGTGTCC	0.0158
CCCAGAAG	-0.0542
AGCCTTGG	-0.0726
CAACCAGA	-0.0323
GAACATCC	0.167
CCCATACC	-0.231
GACGGCGC	-0.192
AACTAGAT	0.152
AGCGCAAA	-0.0296
GGAAAAAC	0.184
GTGCTAGA	-0.124
GCAGTGAC	-0.155
GGCATTCA	-0.138
ACGAAGCC	0.0745
GACCACGA	-0.184
ATGACGTG	-0.134

Sequence	PBM E-score
CACGCGTA	-0.0939
AATGCTGC	-0.128
CTGTACCA	-0.0498
ACACTAAG	-0.0951
TCTATGCA	0.0041
AAGTGTGA	-0.119
GCCACGCA	-0.166
CAAGGGGG	-0.199
CCGTACAC	-0.153
ATCTGGAA	-0.156
AGTTACAA	0.136
ATAGTAAT	0.2
AGACCAGG	-0.0902
CGTCCTAC	-0.19
TCCTTACA	0.0128
CGGCTGAA	-0.00862
ATCAATCA	0.189
CACATTGG	-0.041
CCTTCGGC	-0.233
GCAAGACC	-0.1
CCGTGTGC	0.0764
TAGGTTGA	0.0152
ATCTGGAG	-0.0362
GGACAGCC	-0.00183
GGCCGACA	-0.0715

Sequence	PBM E-score
CGCAGCCC	-0.0392
GCGCTAGC	-0.26
AACCCTCA	-0.0699
CGGCTTCC	0.0133
AGCGGCCG	0.0454
AGGCTGCA	-0.167
ACTGAACT	0.122
GACCTATA	0.206
GTGTATTA	0.274
GGGAGAAA	-0.0502
CCGGCTAG	-0.155
GGCCACCC	-0.157
CAGGTTGC	-0.135
AGTGCACT	0.178
AAACCGGC	0.0626
GCTTGCAC	-0.0538
CCTATCAC	-0.087
AGGAATAT	-0.00657
ATTAGGCA	-0.0605
CGAGACGA	-0.163
GGCGCCCC	-0.15
AGCGCATC	-0.0758
TGCTGAAA	0.0314
ATGCCATG	-0.0571
CATCGCGG	-0.0604

Sequence	PBM E-score
TACAGGTA	0.038
CTGTCTCC	0.0644
ACGCTCCT	-0.168
AAATCACT	0.134
AACAACGA	0.139
CAGGGCGG	-0.0156
AATGACAA	0.166
AGGTCACA	-0.328
GCGGTCAC	-0.123
TAGGCGAA	0.0159
AGGACCTA	-0.0435
ACGAGACC	-0.104
CGCAGGCG	-0.291
CCTCGTAA	0.104
AGCGATAG	-0.19
CCATGTTA	-0.0625
ACAGAGAG	-0.328
AGCGTCGG	0.0953
TAATACCA	0.208
AACTTCTA	0.131
CCAGTTTA	0.018
ATAGCAAC	0.118
AAGAGGGA	-0.2
TCGCCGCA	0.038
CGACGCAA	-0.0434

Sequence	PBM E-score
AGGTGTGA	-0.236
AGAGACGG	-0.0502
AGTCTGTC	-0.0639
ACTAGTGG	0.0275
TAATTTGA	0.0943
CATGTCGA	-0.0193
TACTTATA	0.151
AAAGATCT	-0.0291
AAACCTTT	0.199
TCCGGCCA	0.209
ATCTCGCC	-0.215
CGCATCAC	-0.119
ATACGTTG	-0.0628
TATAGCCA	0.0639
CGGCAGTC	0.0702
CGGCGGCA	-0.146
CCAGTTCC	-0.131
AAGCTAGT	0.0677
AACCAATT	0.168
CTTTGAAA	0.17
TCAGTCCA	-0.317
GCTGTCCA	-0.145
ATCAATAA	0.0538
AAGTCGAA	-0.067
CGCTGCGC	-0.262

Sequence	PBM E-score
AACCGCTA	0.0225
CGTCAAAC	-0.0738
TAACGCTA	0.14
AATTGGGA	0.0631
AACCTGTG	-0.188
ATGGCTTG	-0.0924
ATTTACTG	0.181
AACAATGT	0.163
CCGCGCAA	0.026
CGATTCGA	0.101
ACACTAGT	-0.0821
AATGCCCC	-0.278
CGACGCTC	0.00691
AGGTTGTC	-0.219
GTTTGCAA	0.161
CCTAGTCG	-0.21
CTACGAGC	-0.331
CTGGGCCC	-0.166
ACTCAAGA	0.0905
CTGCACAC	-0.246
ACGCTGTC	-0.0588
AAGGCCTC	-0.0551
